Experimental data taken from a collection of fitness landscapes (doi:10.1016/j.celrep.2020.107928).
Whole data set: some 81,000 sequences, median “one-hybrid fitness for binding NBS DNA” near -0.1, cut for the highest 2% near 0.36. This is one part of the list.

B1: Caulobacter ParB omega fusion; a variant is named by its letters at X, in order, B8GW30 (parent)
chain: MESVVVGEPGMSEGRRGLGRGLSALLGEVDAAPAQAPGEQLGGSREAPIEILQRNPDQPRRTFREEDLEDLSNSIREKGVLQPILVRPSPDTAGEYQIVAGERAWRAAQRAGLKTVPIMVRELDDLAVLEIGIIENVQRADLNVLEEALSYKVLMEKFERTQENIAQTIGKSXSHVANXMRLLXLPDEVQSYLVSGELTAXHARAIAAAADPVALAKQIIEGGLSVRETEALARKAPNLSAGKSKGGRPPRVKDTDTQALESDLSSVLGLDVSIDHRGSTGTLTITYATLEQLDDLCNRLTRGI

Variants of: B1
Assay: one-hybrid fitness for binding NBS DNA (the Noc-binding site; scaled: cognate 1, non-cognate 0); higher = stronger binding
Conditions: with NBS DNA site
Outline: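 Bacterial one-hybrid selection in E. coli USO rpoZ- hisB- pyrF- with a HIS3 reporter carrying the site 19 bp from the promoter, screening Caulobacter ParB libraries with four specificity codons randomised (NNS). Cells grew 48 hours at 37°C on M9-minus-histidine plus 0.1 mM IPTG and 5 mM 3-AT. Plasmids before and after selection were Illumina-sequenced, three replicate libraries pooled, and variants under 10 reads dropped. Fitness is the log change in variant-to-wild-type read ratio, rescaled to cognate 1, non-cognate 0.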

| Variant | one-hybrid fitness for binding NBS DNA |
| --- | --- |
| YAAP | ≤ 0.2 |
| QSQP | ≤ 0.2 |
| RKSE | ≤ 0.2 |
| CFYG | ≤ 0.2 |
| QMQC | ≤ 0.2 |
| HLRA | ≤ 0.2 |
| YTVY | ≤ 0.2 |
| GIYS | ≤ 0.2 |
| ITSN | ≤ 0.2 |
| CNHN | ≤ 0.2 |
| IDLF | ≤ 0.2 |
| QVNL | ≤ 0.2 |
| ANNT | ≤ 0.2 |
| PQYD | ≤ 0.2 |
| QSGS | 0.358 |
| LAIW | ≤ 0.2 |
| QSWF | ≤ 0.2 |
| HIKI | ≤ 0.2 |
| HKPS | ≤ 0.2 |
| CGRG | ≤ 0.2 |
| GSQR | ≤ 0.2 |
| RLSP | ≤ 0.2 |
| ASVV | ≤ 0.2 |
| NYNV | ≤ 0.2 |
| QRDF | ≤ 0.2 |

| Variant | one-hybrid fitness for binding NBS DNA |
| --- | --- |
| MQSA | ≤ 0.2 |
| RFRQ | ≤ 0.2 |
| WFWG | ≤ 0.2 |
| SNSR | ≤ 0.2 |
| PWWC | ≤ 0.2 |
| QIHG | ≤ 0.2 |
| VKSV | ≤ 0.2 |
| GHGG | ≤ 0.2 |
| IANS | ≤ 0.2 |
| WPRF | ≤ 0.2 |
| ISLS | ≤ 0.2 |
| TEMY | ≤ 0.2 |
| PFLW | ≤ 0.2 |
| CAPS | ≤ 0.2 |
| RQNC | ≤ 0.2 |
| RQGL | ≤ 0.2 |
| YPAR | ≤ 0.2 |
| MSKT | ≤ 0.2 |
| HLYP | ≤ 0.2 |
| LRTV | ≤ 0.2 |
| ARQR | ≤ 0.2 |
| YMTT | ≤ 0.2 |
| PYAN | ≤ 0.2 |
| SKSQ | ≤ 0.2 |
| ARVL | ≤ 0.2 |

| Variant | one-hybrid fitness for binding NBS DNA |
| --- | --- |
| YHKF | ≤ 0.2 |
| QYMF | ≤ 0.2 |
| YVNL | ≤ 0.2 |
| VDWD | ≤ 0.2 |
| NDAR | ≤ 0.2 |
| MHVC | ≤ 0.2 |
| WFPY | ≤ 0.2 |
| MHPY | ≤ 0.2 |
| LSWK | ≤ 0.2 |
| HSEI | ≤ 0.2 |
| SVPA | ≤ 0.2 |
| IAPR | ≤ 0.2 |
| HALT | ≤ 0.2 |
| VRKV | ≤ 0.2 |
| SSHA | ≤ 0.2 |
| RPPG | ≤ 0.2 |
| LKTD | ≤ 0.2 |
| TDPW | ≤ 0.2 |
| HARV | ≤ 0.2 |
| LYGV | ≤ 0.2 |
| AGHK | ≤ 0.2 |
| ERHS | ≤ 0.2 |
| KRVM | ≤ 0.2 |
| WMWS | ≤ 0.2 |
| MSRI | ≤ 0.2 |

| Variant | one-hybrid fitness for binding NBS DNA |
| --- | --- |
| VPLL | ≤ 0.2 |
| SVSY | ≤ 0.2 |
| WIQL | ≤ 0.2 |
| KAEI | ≤ 0.2 |
| SKNT | ≤ 0.2 |
| MPPN | ≤ 0.2 |
| PHDC | ≤ 0.2 |
| QPCE | ≤ 0.2 |
| RPVL | ≤ 0.2 |
| RKEI | ≤ 0.2 |
| LCRC | ≤ 0.2 |
| KIHN | ≤ 0.2 |
| ESRS | ≤ 0.2 |
| CRRM | ≤ 0.2 |
| MHQS | ≤ 0.2 |
| DHRR | 0.224 |
| AKPR | ≤ 0.2 |
| RRFC | 0.362 |
| LALE | ≤ 0.2 |
| VSDK | ≤ 0.2 |
| AWHT | ≤ 0.2 |
| PKIL | ≤ 0.2 |
